Source: paper PMC10731500, “NMR‐identification of the interaction between BRCA1 and the intrinsically disordered monomer of the Myc‐associated factor X” (Protein Science : A Publication of the Protein Society, 2024)

Molecular target: BRCA1 (breast cancer susceptibility protein 1) fragment housing amino acids 219-504 (UniProt P38398 219-504)
Assay: ITC; MAX titrated into a BRCA1 219-504 solution; one-site model
Conditions: both partners purified

UniProt P38398, sequence (P38398 219-504): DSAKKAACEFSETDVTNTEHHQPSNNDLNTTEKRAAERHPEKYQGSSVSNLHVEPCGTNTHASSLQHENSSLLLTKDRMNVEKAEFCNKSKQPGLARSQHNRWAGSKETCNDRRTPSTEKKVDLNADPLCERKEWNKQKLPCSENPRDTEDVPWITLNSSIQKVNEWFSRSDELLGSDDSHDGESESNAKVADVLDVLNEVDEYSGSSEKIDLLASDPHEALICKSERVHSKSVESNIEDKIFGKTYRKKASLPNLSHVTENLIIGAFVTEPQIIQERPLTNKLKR

B1: MAX (MYC-associated factor X) (natural protein)
chain: not shown
notes: MAX, MYC-associated factor X, bHLH-LZ transcription factor; see the SI (Data S1) and Kizilsavas et al., 2017; The same protein is the MAX:MAX homodimer at lower temperature and mostly a disordered monomer at 35°C, pH 5.5; also called MAX monomer; MAX:MAX homodimer
With B1 the Kd was 2500 ± 600 nM and the “stoichiometry N” value was about 1.3.
